Tested on: H2k mdx myotubes
Test: Intracellular distribution by fluorescence microscopy in H2k mdx myotubes
Assay type: cell-based, mouse
Conditions: 1000 nM; all analysed conditions (myoblasts and myotubes of H2k mdx and C2C12 cells)
Experimental: Cells were then transfected with Pip6a-PMO-CF (1 µM) or PMO-CF (1 µM) for 1 h or 4 h. Ten minutes before the end of the incubation, 1 µl Hoechst 33342 dye (Invitrogen Life technology) was added to each dish to visualize the nucleus. The excess of conjugate or dye was eliminated by washing (2x PBS). Finally, 2 ml of OptiMEM were added as a final volume and 10 µl of trypan blue solution (Invitrogen Life technology) were added to quench extracellular fluorescence. Fluorescent images were captured immediately using a Zeiss Axiovert 200 M fluorescence microscope and the Axio Vision software (Carl Zeiss).

PMO: phosphorodiamidate morpholino oligomer 5′-GGCCAAACCTCGGCTTACCTGAAAT-3′ with 5′-amino linker and 3′-fluorescein label, Gene Tools (morpholino, 5'-amino linker, 3'-fluorescein, chemistry not fully specified) [reference compound]
fluorescent signal in cells: did not yield any detectable fluorescent signal

Source: PMC3950666, “Cellular trafficking determines the exon skipping activity of Pip6a-PMO in mdx skeletal and cardiac muscle cells” (Nucleic Acids Research, 2013)
